Measured values reported in paper PMC4336329 (PLoS ONE, 2015).
In all, about 310,000 compounds went through this assay and about 14,000 (4.5%) showed an effect of 50% or more. The effect is printed as a negative number. Some of the results follow.

biological target: human ether-à-go-go-related gene (hERG) potassium channel (human, UniProt Q12809); assay: primary screen, population patch clamp on CHO cells stably expressing hERG
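Note: peak tail current of the secondary pulse compared with the same well before compound.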

human ether-à-go-go-related gene (hERG) potassium channel, sequence (Q12809 whole entry, looked up): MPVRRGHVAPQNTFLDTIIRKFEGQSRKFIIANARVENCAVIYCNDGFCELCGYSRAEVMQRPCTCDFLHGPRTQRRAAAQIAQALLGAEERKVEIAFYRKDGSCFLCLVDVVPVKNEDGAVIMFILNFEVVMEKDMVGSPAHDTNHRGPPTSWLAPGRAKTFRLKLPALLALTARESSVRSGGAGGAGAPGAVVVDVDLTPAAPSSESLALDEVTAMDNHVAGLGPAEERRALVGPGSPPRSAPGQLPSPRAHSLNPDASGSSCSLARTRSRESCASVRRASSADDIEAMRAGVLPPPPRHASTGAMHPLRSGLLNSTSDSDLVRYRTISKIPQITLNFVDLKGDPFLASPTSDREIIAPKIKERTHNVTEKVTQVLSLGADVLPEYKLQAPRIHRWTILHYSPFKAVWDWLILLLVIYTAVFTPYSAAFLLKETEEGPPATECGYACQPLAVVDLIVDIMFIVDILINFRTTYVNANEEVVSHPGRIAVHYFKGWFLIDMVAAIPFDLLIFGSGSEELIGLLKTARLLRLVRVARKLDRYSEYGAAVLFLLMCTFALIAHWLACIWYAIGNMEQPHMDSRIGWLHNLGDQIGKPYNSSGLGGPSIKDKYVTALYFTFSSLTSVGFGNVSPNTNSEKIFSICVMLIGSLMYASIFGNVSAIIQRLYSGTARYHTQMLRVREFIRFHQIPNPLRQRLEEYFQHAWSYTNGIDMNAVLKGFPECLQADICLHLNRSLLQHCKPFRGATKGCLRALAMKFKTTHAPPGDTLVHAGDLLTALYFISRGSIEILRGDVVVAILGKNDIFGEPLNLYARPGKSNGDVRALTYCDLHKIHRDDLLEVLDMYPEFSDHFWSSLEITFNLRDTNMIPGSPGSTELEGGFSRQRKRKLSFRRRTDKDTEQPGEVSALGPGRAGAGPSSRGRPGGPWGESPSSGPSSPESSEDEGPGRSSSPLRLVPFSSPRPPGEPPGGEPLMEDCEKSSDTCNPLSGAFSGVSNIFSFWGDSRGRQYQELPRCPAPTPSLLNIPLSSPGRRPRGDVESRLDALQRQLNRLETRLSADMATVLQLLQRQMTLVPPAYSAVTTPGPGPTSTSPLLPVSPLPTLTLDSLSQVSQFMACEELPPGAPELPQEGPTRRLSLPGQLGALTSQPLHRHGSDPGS

Row | SMILES | hERG current change (%, negative = inhibition) at 10uM [%]
1 | COC1CCCN(Cc2cn(C)nc2-c2ccc(Oc3ccccc3)cc2)C1 (centres unmarked) | -40.7
2 | COCc1cc(C)nc2sc(C(=O)Nc3cccc(OC)c3)c(N)c12 | 4.78
3 | CS(=O)(=O)N(CC(=O)NCc1ccc2c(c1)OCO2)c1ccccc1 | 6.97
4 | CN(C1CCCC1)C1CCN(C(=O)CNC(=O)/C=C/c2ccc(F)cc2)CC1 | -62.6
5 | CCNS(=O)(=O)c1ccc(NC(=O)CC(C)c2ccccc2)cc1 (centres unmarked) | -2.45
6 | N#CC1=C(S)N(c2ccc(F)cc2)C(c2ccco2)NC1=O (centres unmarked) | 30.3
7 | CCCc1cc(=O)oc2c(C)c(OCC(=O)N3CCC(C(N)=O)CC3)ccc12 | 9.66
8 | COc1ccc(/C=C/C(=O)N2CCN(c3ccccn3)CC2)c(OC)c1OC | -11.6
9 | Cc1cccc(NC(=O)CSc2nnc(CNC(=O)c3cccs3)o2)c1C | -4.83
10 | Cc1cc(C)c2c(=O)[nH]n(C3CC(C)N(C)CC3C)c2n1 (centres unmarked) | 4.5
11 | CC(C)n1c(SCC(=O)Nc2ccc(N3CCOCC3)cc2)nnc1-c1ccco1 | 9.21
12 | COc1ccc(-c2nn(CCC(=O)O)cc2CCC(=O)O)cc1 | 22.1
13 | O=C(OCCN1CCOCC1)c1cccnc1 | -25.7
14 | COc1ccc(NC(=S)NC(=O)c2cc3ccccc3o2)c(OC)c1 | 28.8
15 | COc1ccc(-c2c(C)nn3c(N)c(-c4ccccc4)cnc23)cc1OC | 7.46
16 | CCOC(=O)C1(CCOC)CCN(Cc2cccc(OCc3ccccc3)c2)CC1 | -42.4
17 | O=C(N/N=C/C(Br)=C\c1ccccc1)c1ccco1 | -10.4
18 | CCOc1ccc(OCC)c(S(=O)(=O)NNC(=O)c2c(C)nc3ccccn23)c1 | -24.2
19 | CSc1ccc(CN2CCN(CC=C(C)C)C(CCO)C2)cc1 (centres unmarked) | -46.2
20 | Cc1ccc(C)c(OCCCC(C)(C)C(=O)O)c1 | 8.14
21 | Cc1ccc(CSCCNS(=O)(=O)c2ccc(C)cc2)cc1 | 2.75
22 | CSc1nnc(-c2sccc2OCc2ccc(C)cc2)n1C | -17.4

Row | SMILES | hERG current change (%, negative = inhibition) at 10uM [%]
23 | CCN1CCN(c2ccc(S(=O)(=O)N3CCCCC3)cc2NC(=O)c2cccc(F)c2)CC1 | -34.6
24 | Fc1cc(Br)ccc1COc1ccc(-c2nnco2)cc1 | 17.3
25 | CCCn1nc(NC(=O)CC(C)C)c2cc3cccc(C)c3nc21 | 6.89
26 | COc1ccc(S(=O)(=O)N(C)C)cc1NCC(=O)Nc1cccc(C#N)c1 | 2.34
27 | O=C(O)CCC(=O)N1N=C(c2ccc(Br)cc2)CC1c1ccc(Br)cc1 (centres unmarked) | 20.6
28 | COc1cc(CNC(=O)c2cc3ccccc3oc2=O)cc(OC)c1OC | 5.59
29 | CCOC(=O)C(C)Sc1nc(N2CCOCC2)c2c(c1C#N)CC(C)(C)OC2 (centres unmarked) | -47.9
30 | COCC(C)NC(=O)c1ccc(-n2nc(C(F)(F)F)cc2-c2cccs2)cc1 (centres unmarked) | -32.7
31 | Cc1nn(S(=O)(=O)N2CCOCC2)c(C)c1Br | -0.162
32 | Cc1ccc(S(=O)(=O)Nc2nc(-c3ccc(F)cc3)cs2)cc1 | 5.84
33 | O=C(c1ccc2ccccc2c1)N1CCOCC1 | -18.6
34 | Br.N=c1n(CCc2ccccc2)c2ccccc2n1Cc1ccccc1F | -62.6
35 | CCOC(=O)c1c(C)[nH]c(C(=O)N/N=C\c2ccccc2Cl)c1C | 2.2
36 | Cc1nc2nc(CNC(=O)OC(C)(C)C)nn2c(C)c1CCC(=O)Nc1ccc2c(c1)OCO2 | -13.3
37 | CCCOC(=O)c1ccccc1C(=O)OCCC | -3.24
38 | CCC1(C)Cc2c(sc3nc(SC)[nH]c(=O)c23)CO1 (centres unmarked) | 1.51
39 | COc1cccc(CN2CCN(c3ccc(F)cc3)C2=O)c1 | -21.4
40 | Clc1ccccc1Cn1nnc2c(NCCN3CCOCC3)ncnc21 | -8.27
41 | Cc1ccc(-c2csc3nc[nH]c(=S)c23)cc1C | 27.5
42 | C[C@H](NC(=O)c1nc[nH]c1C(=O)N[C@@H](Cc1ccccc1)C(=O)OC(C)(C)C)c1ccccc1 | 9.61
43 | COc1ccc(CCNC(=O)c2ccc(S(=O)(=O)N(C)c3ccccc3)cc2)cc1OC | -7.94
44 | CC1(C)NC(=O)N(c2ccc([N+](=O)[O-])c(C(F)(F)F)c2)C1=O | 10.5
